Data reported in paper PMC6347294.
No constants are given. Whether binding was seen depends on the method and setting. Binding seen in cells or lysates may run through a third protein. Some results given as binding are weak or reduced against the parent protein; the word gives no strength. For some of these results: Tags and fused reporters may be left off the sequences shown. Blank lines part the entries; values can stand above or below the molecule they belong to.

Chains of the proteins cited; added tags and fusions are not shown. Lines headed by an entry give the natural chain unless they say otherwise; changes in a name come on top. A line that says so, or that is headed by a name, gives the form on record, which may keep a tag or linker.
UniProt Q969H0: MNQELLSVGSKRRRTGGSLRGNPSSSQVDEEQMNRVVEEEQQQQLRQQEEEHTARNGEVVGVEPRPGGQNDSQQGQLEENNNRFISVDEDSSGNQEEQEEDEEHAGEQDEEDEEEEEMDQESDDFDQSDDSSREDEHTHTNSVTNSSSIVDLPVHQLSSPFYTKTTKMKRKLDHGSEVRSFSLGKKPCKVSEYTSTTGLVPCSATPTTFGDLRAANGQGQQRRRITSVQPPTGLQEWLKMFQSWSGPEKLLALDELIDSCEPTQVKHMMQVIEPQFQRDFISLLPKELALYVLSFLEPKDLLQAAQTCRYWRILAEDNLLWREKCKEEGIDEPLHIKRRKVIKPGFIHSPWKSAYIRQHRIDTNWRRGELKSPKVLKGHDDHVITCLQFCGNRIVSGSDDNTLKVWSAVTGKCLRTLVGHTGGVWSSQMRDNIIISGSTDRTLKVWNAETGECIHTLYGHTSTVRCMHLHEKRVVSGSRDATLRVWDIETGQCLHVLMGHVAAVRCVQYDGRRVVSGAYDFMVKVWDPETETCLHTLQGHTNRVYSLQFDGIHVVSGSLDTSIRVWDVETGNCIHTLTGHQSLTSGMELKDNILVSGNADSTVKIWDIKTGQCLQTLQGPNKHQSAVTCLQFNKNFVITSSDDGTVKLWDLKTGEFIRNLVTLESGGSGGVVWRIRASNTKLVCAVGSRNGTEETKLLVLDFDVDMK
Flag-FBW7γ (F-box and WD repeat domain-containing protein 7, isoform γ) (Q969H0, form named): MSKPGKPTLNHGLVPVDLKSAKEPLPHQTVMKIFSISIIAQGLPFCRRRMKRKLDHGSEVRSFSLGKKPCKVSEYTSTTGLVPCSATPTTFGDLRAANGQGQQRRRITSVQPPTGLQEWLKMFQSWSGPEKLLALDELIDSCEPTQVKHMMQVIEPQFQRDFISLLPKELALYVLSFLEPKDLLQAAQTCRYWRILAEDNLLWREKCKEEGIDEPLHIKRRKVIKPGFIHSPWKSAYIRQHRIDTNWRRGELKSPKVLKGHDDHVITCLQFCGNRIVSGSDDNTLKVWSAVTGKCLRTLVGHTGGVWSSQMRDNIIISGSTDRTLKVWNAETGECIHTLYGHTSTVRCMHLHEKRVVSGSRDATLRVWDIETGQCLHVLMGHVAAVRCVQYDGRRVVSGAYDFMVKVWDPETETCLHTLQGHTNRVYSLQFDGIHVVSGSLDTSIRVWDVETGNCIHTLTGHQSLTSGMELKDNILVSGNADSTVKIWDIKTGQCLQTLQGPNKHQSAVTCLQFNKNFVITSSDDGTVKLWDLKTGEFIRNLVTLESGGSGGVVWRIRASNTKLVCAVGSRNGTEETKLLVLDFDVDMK
Flag-FBW7β (F-box and WD repeat domain-containing protein 7, isoform β) (Q969H0, form named): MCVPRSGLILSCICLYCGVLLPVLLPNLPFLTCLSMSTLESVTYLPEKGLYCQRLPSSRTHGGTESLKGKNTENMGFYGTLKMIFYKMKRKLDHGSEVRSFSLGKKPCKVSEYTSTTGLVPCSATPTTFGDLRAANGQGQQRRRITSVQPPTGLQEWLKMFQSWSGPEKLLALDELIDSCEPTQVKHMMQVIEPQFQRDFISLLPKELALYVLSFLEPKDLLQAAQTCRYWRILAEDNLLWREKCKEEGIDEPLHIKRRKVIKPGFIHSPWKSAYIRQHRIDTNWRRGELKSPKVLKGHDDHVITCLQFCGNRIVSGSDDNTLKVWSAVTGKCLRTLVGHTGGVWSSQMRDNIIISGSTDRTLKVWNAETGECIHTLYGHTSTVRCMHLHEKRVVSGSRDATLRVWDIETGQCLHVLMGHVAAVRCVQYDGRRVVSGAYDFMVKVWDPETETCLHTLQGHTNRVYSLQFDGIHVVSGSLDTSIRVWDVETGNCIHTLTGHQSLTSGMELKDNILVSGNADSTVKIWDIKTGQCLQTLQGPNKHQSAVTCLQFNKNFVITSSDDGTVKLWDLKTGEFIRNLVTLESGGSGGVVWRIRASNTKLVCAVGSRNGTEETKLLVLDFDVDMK
UniProt Q3U3T8: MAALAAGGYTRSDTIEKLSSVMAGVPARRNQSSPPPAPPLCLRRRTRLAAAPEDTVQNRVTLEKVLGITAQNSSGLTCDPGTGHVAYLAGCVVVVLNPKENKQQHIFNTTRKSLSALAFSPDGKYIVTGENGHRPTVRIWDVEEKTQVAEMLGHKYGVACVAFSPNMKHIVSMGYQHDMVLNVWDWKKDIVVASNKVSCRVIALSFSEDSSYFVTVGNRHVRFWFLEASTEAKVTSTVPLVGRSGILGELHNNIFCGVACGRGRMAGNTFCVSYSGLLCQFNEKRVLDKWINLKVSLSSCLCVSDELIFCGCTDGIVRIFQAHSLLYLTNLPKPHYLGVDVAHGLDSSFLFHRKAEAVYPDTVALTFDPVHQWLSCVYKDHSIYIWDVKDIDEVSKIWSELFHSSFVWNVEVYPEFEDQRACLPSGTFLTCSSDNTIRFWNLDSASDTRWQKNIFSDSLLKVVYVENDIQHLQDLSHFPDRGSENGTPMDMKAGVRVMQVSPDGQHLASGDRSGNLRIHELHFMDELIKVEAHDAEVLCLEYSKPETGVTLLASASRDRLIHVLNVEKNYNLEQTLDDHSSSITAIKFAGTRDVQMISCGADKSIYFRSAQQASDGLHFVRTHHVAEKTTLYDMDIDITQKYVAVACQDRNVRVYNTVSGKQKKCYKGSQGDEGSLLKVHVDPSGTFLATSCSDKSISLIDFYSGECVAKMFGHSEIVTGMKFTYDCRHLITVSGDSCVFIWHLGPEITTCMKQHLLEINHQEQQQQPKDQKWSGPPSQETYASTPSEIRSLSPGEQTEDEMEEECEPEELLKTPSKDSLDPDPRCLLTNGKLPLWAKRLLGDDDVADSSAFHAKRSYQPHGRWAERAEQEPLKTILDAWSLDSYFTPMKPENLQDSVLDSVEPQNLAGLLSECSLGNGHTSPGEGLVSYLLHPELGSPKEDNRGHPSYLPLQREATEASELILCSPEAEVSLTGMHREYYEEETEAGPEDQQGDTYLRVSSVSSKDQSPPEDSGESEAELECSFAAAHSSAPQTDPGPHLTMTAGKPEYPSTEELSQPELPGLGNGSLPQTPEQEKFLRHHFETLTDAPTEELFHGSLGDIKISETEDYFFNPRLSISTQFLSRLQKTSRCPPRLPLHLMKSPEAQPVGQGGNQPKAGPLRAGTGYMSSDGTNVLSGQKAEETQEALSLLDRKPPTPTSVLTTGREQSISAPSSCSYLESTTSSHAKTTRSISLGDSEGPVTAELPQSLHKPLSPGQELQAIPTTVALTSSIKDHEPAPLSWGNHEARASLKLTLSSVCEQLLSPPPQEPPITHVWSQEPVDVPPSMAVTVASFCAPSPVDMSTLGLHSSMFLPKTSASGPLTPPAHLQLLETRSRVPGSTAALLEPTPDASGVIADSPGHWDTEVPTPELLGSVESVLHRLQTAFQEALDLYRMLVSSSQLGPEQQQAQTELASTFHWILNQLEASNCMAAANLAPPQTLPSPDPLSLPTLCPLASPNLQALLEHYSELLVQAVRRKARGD

Key:
[1] = target: WDR62 T1053A (as used in Fig 6B) (human) (UniProt O43379); experiment: co-IP; HEK293 cells transfected with tagged constructs; lysates immunoprecipitated with HA or Flag antibody and immunoblotted; in S7 Fig cells were treated with MG132 for 4 hours before lysis
HA-FBW7α (S7 Fig) = HA-FBW7α (S7 Fig) (UniProt Q969H0); experiment: as above
[2] = target: Flag-FBW7α (F-box and WD repeat domain-containing protein 7, isoform α) (UniProt Q969H0); experiment: as above
[3] = target: Flag-FBW7γ (F-box and WD repeat domain-containing protein 7, isoform γ) (UniProt Q969H0); experiment: as above
[4] = target: Flag-FBW7β (F-box and WD repeat domain-containing protein 7, isoform β) (UniProt Q969H0); experiment: as above
[5] = target: T1, endogenous MEKK3 of E14.5 mouse cortex (mouse (endogenous in E14.5 cortex)) (UniProt Q61084); experiment: co-IP; E14.5 mouse cortical lysate immunoprecipitated with anti-MEKK3 antibody, probed for MEKK3 and WDR62
T1 sequence: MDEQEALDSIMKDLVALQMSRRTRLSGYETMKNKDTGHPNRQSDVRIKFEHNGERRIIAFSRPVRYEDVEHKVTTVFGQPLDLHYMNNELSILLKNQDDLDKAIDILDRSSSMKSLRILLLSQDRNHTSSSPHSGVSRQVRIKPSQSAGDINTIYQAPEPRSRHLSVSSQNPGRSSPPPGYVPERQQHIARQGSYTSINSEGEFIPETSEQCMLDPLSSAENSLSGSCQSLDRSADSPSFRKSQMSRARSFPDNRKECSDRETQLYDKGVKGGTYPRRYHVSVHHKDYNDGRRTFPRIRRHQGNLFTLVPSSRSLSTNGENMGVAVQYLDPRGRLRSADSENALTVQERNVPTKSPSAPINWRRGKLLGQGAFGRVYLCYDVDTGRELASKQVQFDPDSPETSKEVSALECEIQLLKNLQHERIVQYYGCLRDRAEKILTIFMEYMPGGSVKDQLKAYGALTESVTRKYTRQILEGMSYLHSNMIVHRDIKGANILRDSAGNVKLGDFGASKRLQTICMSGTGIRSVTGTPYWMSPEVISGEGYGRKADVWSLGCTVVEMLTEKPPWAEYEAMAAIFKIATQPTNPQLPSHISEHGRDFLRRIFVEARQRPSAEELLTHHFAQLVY

[6] = target: HA-WDR62 (WD repeat domain 62), wild type (human) (UniProt O43379); experiment: co-IP; HEK293 cells transfected with tagged constructs; lysates immunoprecipitated with HA or Flag antibody and immunoblotted; in S7 Fig cells were treated with MG132 for 4 hours before lysis
[7] = target: T2, GST-fused WDR62 C2 (aa1018-1523) (human) (UniProt O43379); experiment: pull-down; in vitro-transcribed and translated MEKK3 with purified GST-fused WDR62 fragments or GST; only the target purified
T2 sequence: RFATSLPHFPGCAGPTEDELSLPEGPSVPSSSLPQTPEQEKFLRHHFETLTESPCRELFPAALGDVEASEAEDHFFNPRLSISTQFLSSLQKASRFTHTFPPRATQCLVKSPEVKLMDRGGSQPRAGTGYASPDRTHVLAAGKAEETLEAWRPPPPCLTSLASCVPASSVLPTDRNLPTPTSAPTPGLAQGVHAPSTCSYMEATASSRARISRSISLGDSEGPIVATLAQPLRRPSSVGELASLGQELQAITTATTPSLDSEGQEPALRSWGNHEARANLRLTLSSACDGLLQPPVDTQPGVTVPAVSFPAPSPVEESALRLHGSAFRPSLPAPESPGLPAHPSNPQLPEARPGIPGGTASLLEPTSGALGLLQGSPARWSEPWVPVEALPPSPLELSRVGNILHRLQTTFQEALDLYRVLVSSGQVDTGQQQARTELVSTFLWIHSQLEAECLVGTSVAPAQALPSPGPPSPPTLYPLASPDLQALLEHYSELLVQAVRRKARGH

[8] = target: T3, GST-fused WDR62 C1 (aa1314-1523) (human) (UniProt O43379); experiment: as above
T3 sequence: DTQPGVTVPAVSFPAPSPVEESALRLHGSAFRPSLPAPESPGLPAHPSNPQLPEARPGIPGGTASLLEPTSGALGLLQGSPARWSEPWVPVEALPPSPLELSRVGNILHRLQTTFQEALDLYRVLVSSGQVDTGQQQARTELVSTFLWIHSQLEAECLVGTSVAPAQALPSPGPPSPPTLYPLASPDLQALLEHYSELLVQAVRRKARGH

binding [1]: binds weakly
Molecule: Flag-FBW7α (F-box and WD repeat domain-containing protein 7, isoform α) (from UniProt Q969H0-1 1-707)

binding (HA-FBW7α (S7 Fig)): binds
Molecule: Flag-WDR62, wild type (S7 Fig) (from UniProt O43379-4 1-1523)

binding [5]: binds
Molecule: endogenous WDR62 of E14.5 mouse cortex (from UniProt Q3U3T8 1-1523)

binding [6]: binds
B1: Flag-MEKK3 (mitogen-activated protein kinase kinase kinase 3) (enzyme, UniProt Q99759 1-626)
chain: MDEQEALNSIMNDLVALQMNRRHRMPGYETMKNKDTGHSNRQSDVRIKFEHNGERRIIAFSRPVKYEDVEHKVTTVFGQPLDLHYMNNELSILLKNQDDLDKAIDILDRSSSMKSLRILLLSQDRNHNSSSPHSGVSRQVRIKASQSAGDINTIYQPPEPRSRHLSVSSQNPGRSSPPPGYVPERQQHIARQGSYTSINSEGEFIPETSEQCMLDPLSSAENSLSGSCQSLDRSADSPSFRKSRMSRAQSFPDNRQEYSDRETQLYDKGVKGGTYPRRYHVSVHHKDYSDGRRTFPRIRRHQGNLFTLVPSSRSLSTNGENMGLAVQYLDPRGRLRSADSENALSVQERNVPTKSPSAPINWRRGKLLGQGAFGRVYLCYDVDTGRELASKQVQFDPDSPETSKEVSALECEIQLLKNLQHERIVQYYGCLRDRAEKTLTIFMEYMPGGSVKDQLKAYGALTESVTRKYTRQILEGMSYLHSNMIVHRDIKGANILRDSAGNVKLGDFGASKRLQTICMSGTGMRSVTGTPYWMSPEVISGEGYGRKADVWSLGCTVVEMLTEKPPWAEYEAMAAIFKIATQPTNPQLPSHISEHGRDFLRRIFVEARQRPSAEELLTHHFAQLMY

The remaining lines, values behind:

Molecule: Flag-WDR62-T1053A (S7 Fig) (from UniProt O43379-4 1-1523)
binding (HA-FBW7α (S7 Fig)): binds weakly

Molecule: HA-WDR62 (WD repeat domain 62), wild type (from UniProt O43379-4 1-1523)
binding [2]: binds | binding [3]: binds | binding [4]: no binding

B2: in vitro-transcribed and translated MEKK3 (enzyme, UniProt Q99759 1-626)
chain: B1 chain
binding [7]: binds | binding [8]: no binding
